The nature of data set [1]: xn = mol fraction of the nth substance listed. Particulars: 100 kPa, x2 = 0.5.

± gives the uncertainty stated by the source. Some entries of the source have several records that differ or are many. This list holds those alone. There may be further records. Values given together are repeated measurements (runs, samples, wells, individuals or studies). Brackets tell where a record comes from. A, B and so on number the origins entry by entry. Additions like (4×) give the number of equal values in this list.

A word on the viscosity: it is the internal friction of a fluid under shear. A high value points to sluggish flow.

`Cc1ccccc1O`: for the setting “303.15 K, 101 kPa”, the viscosity is 6.323 ± 0.17 mPa·s [study A] and 6.125 ± 0.075 mPa·s [study B] and 6.043 ± 0.16 mPa·s [study C] and 7.479 ± 0.053 mPa·s [study D].

Regarding `C=CC(=O)OCCCC`, the viscosity reads like this: (298.15 K, 101 kPa) 0.8385 ± 0.034 mPa·s [study A] and 0.787 ± 0.008 mPa·s [study B] and 0.806 ± 0.07 mPa·s [study C] and 0.838 ± 0.011 mPa·s [study D]; (308.15 K, 101 kPa) 0.7306 ± 0.03 mPa·s [study A] and 0.684 ± 0.008 mPa·s [study B] and 0.703 ± 0.07 mPa·s [study C] and 0.73 ± 0.01 mPa·s [study D].

For `CC(C)CO`, the viscosity (298.15 K, 101 kPa) is 3.556 ± 0.048 mPa·s [study A] and 3.295 ± 0.03 mPa·s [study B] and 3.38 mPa·s [study C] and 3.291 ± 0.02 mPa·s [study D] and 3.36 ± 0.027 mPa·s [study E] and 3.38 ± 0.042 mPa·s [study F]; the viscosity (303.15 K, 101 kPa) is 2.849 ± 0.027 mPa·s [study A] and 2.942 ± 0.031 mPa·s [study B] and 2.89 mPa·s [study C] and 2.635 ± 0.032 mPa·s [study D] and 2.845 ± 0.02 mPa·s [study E]; the viscosity (308.15 K, 101 kPa) was 2.455 ± 0.025 mPa·s [study A] and 2.453 ± 0.023 mPa·s [study B] and 2.52 ± 0.027 mPa·s [study C] and 2.47 mPa·s [study D]; the viscosity (308.15 K, 101.3 kPa) was 2.316 ± 0.034 mPa·s [study A] and 2.317 ± 0.029 mPa·s [study B] and 2.426 ± 0.055 mPa·s [study C] and 2.426 ± 0.015 mPa·s [study D].

For the compound `CCCCCC`, the viscosity (298.15 K, 101 kPa) was 0.3046 ± 0.04 mPa·s, 0.3023 ± 0.003 mPa·s, 0.327 ± 0.026 mPa·s, 0.292 ± 0.003 mPa·s, 0.2919 ± 0.012 mPa·s, 0.34 ± 0.04 mPa·s, 0.2958 ± 0.008 mPa·s, 0.2958 ± 0.004 mPa·s, 0.299 ± 0.0038 mPa·s, 0.299 ± 0.003 mPa·s [several studies]; the viscosity (298.15 K, 101.33 kPa) was 0.2979 ± 0.0035 mPa·s, 0.3096 ± 0.0033 mPa·s, 0.3092 ± 0.0033 mPa·s, 0.298 ± 0.003 mPa·s, 0.298 ± 0.01 mPa·s (2×), 0.311 ± 0.01 mPa·s, 0.2987 ± 0.0097 mPa·s, 0.2987 ± 0.005 mPa·s, 0.302 ± 0.003 mPa·s, 0.318 ± 0.004 mPa·s [several studies]; the viscosity (303.15 K, 101.33 kPa) is 0.278 ± 0.007 mPa·s [study A] and 0.2977 ± 0.0034 mPa·s [study B] and 0.2759 ± 0.0033 mPa·s [study C] and 0.285 ± 0.009 mPa·s [study D] and 0.296 ± 0.01 mPa·s [study E] and 0.285 ± 0.01 mPa·s [study F] and 0.287 ± 0.003 mPa·s [study G] and 0.303 ± 0.004 mPa·s [study H]; the viscosity (308.15 K, 101.33 kPa) was 0.2709 ± 0.0032 mPa·s [study A] and 0.284 ± 0.009 mPa·s [study B] and 0.271 ± 0.003 mPa·s [study C] and 0.273 ± 0.01 mPa·s [study D] and 0.274 ± 0.002 mPa·s [study E] and 0.288 ± 0.004 mPa·s [study F]; the viscosity (313.15 K, 101 kPa) is 0.26 ± 0.003 mPa·s [study A] and 0.2391 ± 0.0046 mPa·s [study B] and 0.257 ± 0.005 mPa·s [study C] and 0.262 ± 0.003 mPa·s [study D].

In the case of `C=CC(=O)OC`, the viscosity runs as follows: (298.15 K, 101 kPa) 0.4602 ± 0.019 mPa·s [study A] and 0.449 ± 0.007 mPa·s [study B] and 0.465 ± 0.01 mPa·s [study C] and 0.46 ± 0.07 mPa·s [study D] and 0.461 ± 0.008 mPa·s [study E]; (303.15 K, 101 kPa) 0.4197 ± 0.017 mPa·s [study A] and 0.428 ± 0.009 mPa·s [study B] and 0.433 ± 0.07 mPa·s [study C] and 0.42 ± 0.007 mPa·s [study D]; (308.15 K, 101 kPa) 0.3856 ± 0.016 mPa·s [study A] and 0.39 ± 0.007 mPa·s [study B] and 0.392 ± 0.008 mPa·s [study C] and 0.414 ± 0.07 mPa·s [study D] and 0.384 ± 0.007 mPa·s [study E]; (313.15 K, 101 kPa) 0.355 ± 0.015 mPa·s [study A] and 0.36 ± 0.01 mPa·s [study B] and 0.395 ± 0.07 mPa·s [study C] and 0.357 ± 0.007 mPa·s [study D].

As to `O=C(O)C(=O)O` + C[N+](C)(C)CCO.[Cl-], the viscosity in data set [1] (303.15 K) is 5363 ± 380 mPa·s [study A] and 398.6 ± 19 mPa·s [study B]; in data set [1] (313.15 K) it was 2142 ± 130 mPa·s [study A] and 223.3 ± 9.9 mPa·s [study B]; in data set [1] (323.15 K), 971.1 ± 53 mPa·s [study A] and 136.7 ± 5.8 mPa·s [study B].

These data come from the CheMixHub viscosity set.
